{"source": "the supplement of paper PMC8728848", "binders": {"B1": {"name": "Unk16A (Cellvibrio mixtus), Q336L6 (protein)", "chain": "VAYNTTGASSSAASSSAPSSASSSSSSAAPVLLSQGRPVTASSNFQPAANAVDGNGGTRWESTHGVSPSWIMVDLGSSKNLSQVIIDWEAANAANYLVQASNNGMSWTTLKIITTGAFGDRTDTHSVAGNYRYVRIYATARSAGNQWGYSIWELKITGN"}}, "test_in_all_cases": "glycan array binding signal (z-score within array); higher = stronger binding", "settings_in_all_cases": "glycan notation: IUPAC condensed, linker removed", "key": {"[1]": {"target": "Glc(b1-4)Glc(b1-4)Glc(b1-3)Glc", "in_short": "(§1)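 From the Consortium for Functional Glycomics database, 3228 arrays were curated, keeping only those whose protein sequence was available. Binding is given as a within-array Z-score averaged across arrays sharing a protein sequence and across linkers. Negative Z-scores can be read as non-binding.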"}, "[2]": {"target": "Glc(b1-4)Glc(b1-4)Glc(b1-3)Glc(b1-4)Glc(b1-4)Glc(b1-3)Glc", "in_short": "as §1"}, "[3]": {"target": "Glc(b1-4)Glc(b1-4)Glc(b1-4)Glc", "in_short": "as §1"}, "[4]": {"target": "Glc(b1-4)Glc(b1-4)Glc(b1-4)Glc(b1-3)Glc", "in_short": "as §1"}, "[5]": {"target": "Glc(b1-4)Glc(b1-4)Glc(b1-4)Glc(b1-4)Glc", "in_short": "as §1"}, "[6]": {"target": "Glc(b1-4)Glc(b1-4)Glc(b1-4)Glc(b1-4)Glc(b1-4)Glc", "in_short": "as §1"}, "[7]": {"target": "Glc(b1-4)Glc(b1-4)Glc(b1-4)Glc(b1-4)Glc(b1-4)Glc(b1-4)Glc", "in_short": "as §1"}, "[8]": {"target": "Glc(b1-4)Glc(b1-4)Glc(b1-4)Glc(b1-4)Glc(b1-4)Glc(b1-4)Glc(b1-4)Glc", "in_short": "as §1"}, "[9]": {"target": "Glc(b1-4)Glc(b1-4)Glc(b1-4)Glc(b1-4)Glc(b1-4)Glc(b1-4)Glc(b1-4)Glc(b1-4)Glc", "in_short": "as §1"}, "[10]": {"target": "Glc(b1-4)Glc(b1-4)Glc(b1-4)Glc(b1-4)Glc(b1-4)Glc(b1-4)Glc(b1-4)Glc(b1-4)Glc(b1-4)Glc", "in_short": "as §1"}, "[11]": {"target": "Glc(b1-4)Glc(b1-4)Glc(b1-4)Glc(b1-4)Glc(b1-4)Glc(b1-4)Glc(b1-4)Glc(b1-4)Glc(b1-4)Glc(b1-4)Glc", "in_short": "as §1"}, "[12]": {"target": "Glc(b1-4)Glc(b1-4)Glc(b1-4)Glc(b1-4)Glc(b1-4)Glc(b1-4)Glc(b1-4)Glc(b1-4)Glc(b1-4)Glc(b1-4)Glc(b1-4)Glc", "in_short": "as §1"}, "[13]": {"target": "Glc(b1-4)Glc(b1-4)Glc(b1-4)Glc(b1-4)Glc(b1-4)Glc(b1-4)Glc(b1-4)Glc(b1-4)Glc(b1-4)Glc(b1-4)Glc(b1-4)Glc(b1-4)Glc", "in_short": "as §1"}, "Glc(b1-6)Glc": {"target": "Glc(b1-6)Glc", "in_short": "as §1"}, "Glc(b1-6)Glc(b1-6)Glc": {"target": "Glc(b1-6)Glc(b1-6)Glc", "in_short": "as §1"}, "[14]": {"target": "Glc(b1-6)Glc(b1-6)Glc(b1-6)Glc", "in_short": "as §1"}, "[15]": {"target": "Glc(b1-6)Glc(b1-6)Glc(b1-6)Glc(b1-6)Glc", "in_short": "as §1"}, "[16]": {"target": "Glc(b1-6)Glc(b1-6)Glc(b1-6)Glc(b1-6)Glc(b1-6)Glc", "in_short": "as §1"}, "[17]": {"target": "Glc(b1-6)Glc(b1-6)Glc(b1-6)Glc(b1-6)Glc(b1-6)Glc(b1-6)Glc", "in_short": "as §1"}, "[18]": {"target": "Glc(b1-6)Glc(b1-6)Glc(b1-6)Glc(b1-6)Glc(b1-6)Glc(b1-6)Glc(b1-6)Glc", "in_short": "as §1"}, "[19]": {"target": "Glc(b1-6)Glc(b1-6)Glc(b1-6)Glc(b1-6)Glc(b1-6)Glc(b1-6)Glc(b1-6)Glc(b1-6)Glc", "in_short": "as §1"}, "[20]": {"target": "Glc(b1-6)Glc(b1-6)Glc(b1-6)Glc(b1-6)Glc(b1-6)Glc(b1-6)Glc(b1-6)Glc(b1-6)Glc(b1-6)Glc", "in_short": "as §1"}, "[21]": {"target": "Glc(b1-6)Glc(b1-6)Glc(b1-6)Glc(b1-6)Glc(b1-6)Glc(b1-6)Glc(b1-6)Glc(b1-6)Glc(b1-6)Glc(b1-6)Glc", "in_short": "as §1"}, "[22]": {"target": "Glc(b1-6)Glc(b1-6)Glc(b1-6)Glc(b1-6)Glc(b1-6)Glc(b1-6)Glc(b1-6)Glc(b1-6)Glc(b1-6)Glc(b1-6)Glc(b1-6)Glc(b1-6)Glc(b1-6)Glc(b1-6)Glc", "in_short": "as §1"}, "[23]": {"target": "Man(b1-4)Man(b1-4)Man(b1-4)Man", "in_short": "as §1"}, "[24]": {"target": "Man(b1-4)Man(b1-4)Man(b1-4)Man(b1-4)Man", "in_short": "as §1"}, "[25]": {"target": "Man(b1-4)Man(b1-4)Man(b1-4)Man(b1-4)Man(b1-4)Man", "in_short": "as §1"}, "[26]": {"target": "Xyl(b1-4)Xyl(b1-4)Xyl(b1-4)Xyl(b1-4)Xyl", "in_short": "as §1"}, "[27]": {"target": "Xyl(b1-4)Xyl(b1-4)Xyl(b1-4)Xyl(b1-4)Xyl(b1-4)Xyl", "in_short": "as §1"}}, "note": "This is one part of the list."}
{"binder": "B1", "values": [{"measurement": "glycan array binding signal (z-score)", "setting": "[1]", "result": -0.192}, {"measurement": "glycan array binding signal (z-score)", "setting": "[2]", "result": -0.001}, {"measurement": "glycan array binding signal (z-score)", "setting": "[3]", "result": -0.382}, {"measurement": "glycan array binding signal (z-score)", "setting": "[4]", "result": -0.222}, {"measurement": "glycan array binding signal (z-score)", "setting": "[5]", "result": -0.479}, {"measurement": "glycan array binding signal (z-score)", "setting": "[6]", "result": -0.582}, {"measurement": "glycan array binding signal (z-score)", "setting": "[7]", "result": -0.449}, {"measurement": "glycan array binding signal (z-score)", "setting": "[8]", "result": -0.398}, {"measurement": "glycan array binding signal (z-score)", "setting": "[9]", "result": 0.1}, {"measurement": "glycan array binding signal (z-score)", "setting": "[10]", "result": -0.167}, {"measurement": "glycan array binding signal (z-score)", "setting": "[11]", "result": -0.292}, {"measurement": "glycan array binding signal (z-score)", "setting": "[12]", "result": -0.414}, {"measurement": "glycan array binding signal (z-score)", "setting": "[13]", "result": -0.398}, {"measurement": "glycan array binding signal (z-score)", "setting": "Glc(b1-6)Glc", "result": -0.397}, {"measurement": "glycan array binding signal (z-score)", "setting": "Glc(b1-6)Glc(b1-6)Glc", "result": -0.248}, {"measurement": "glycan array binding signal (z-score)", "setting": "[14]", "result": 0.035}, {"measurement": "glycan array binding signal (z-score)", "setting": "[15]", "result": 0.274}, {"measurement": "glycan array binding signal (z-score)", "setting": "[16]", "result": -0.017}, {"measurement": "glycan array binding signal (z-score)", "setting": "[17]", "result": -0.204}, {"measurement": "glycan array binding signal (z-score)", "setting": "[18]", "result": -0.21}, {"measurement": "glycan array binding signal (z-score)", "setting": "[19]", "result": -0.141}, {"measurement": "glycan array binding signal (z-score)", "setting": "[20]", "result": 0.062}, {"measurement": "glycan array binding signal (z-score)", "setting": "[21]", "result": -0.49}, {"measurement": "glycan array binding signal (z-score)", "setting": "[22]", "result": -0.169}, {"measurement": "glycan array binding signal (z-score)", "setting": "[23]", "result": -0.58}, {"measurement": "glycan array binding signal (z-score)", "setting": "[24]", "result": -0.593}, {"measurement": "glycan array binding signal (z-score)", "setting": "[25]", "result": -0.655}, {"measurement": "glycan array binding signal (z-score)", "setting": "[26]", "result": -0.659}, {"measurement": "glycan array binding signal (z-score)", "setting": "[27]", "result": -0.658}]}
